Measurements from the supplement of paper PMC4604168 (melanoma cell lines).
This is one part of the list. Many values rest on one well or one pass, so single values are uncertain.
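Note: cell number obtained by counting DAPI-stained nuclei in high-throughput microscope images with image analysis software, screen run in 1,536-well plates.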

What follows are compounds tested on IST-MEL1 (assay: cell count relative to DMSO control; melanoma cells; higher = more viable cells). Settings: library dose: low library concentration; 72 h.
`NC(=O)c1ccc(N(C(N)=O)c2c(F)cccc2F)nc1-c1ccc(F)cc1F` + Cn1cncc1[C@@](N)(c1ccc(Cl)cc1)c1ccc2c(c1)c(-c1cccc(Cl)c1)cc(=O)n2C [tipifarnib] (first compound 0.4 µM, partner dose 0.01 µM) was tested, and the cell count was 95.5%. `NC(=O)c1ccc(N(C(N)=O)c2c(F)cccc2F)nc1-c1ccc(F)cc1F` + CO[C@@H]1[C@H](N(C)C(=O)c2ccccc2)C[C@H]2O[C@]1(C)n1c3ccccc3c3c4c(c5c6ccccc6n2c5c31)C(=O)NC4 [Midostaurin] (first compound 0.4 µM, partner dose 0.08 µM) was tested, and the cell count was 94.9%. `NC(=O)c1ccc(N(C(N)=O)c2c(F)cccc2F)nc1-c1ccc(F)cc1F` + CN(NC(=O)CC(=O)NN(C)C(=S)c1ccccc1)C(=S)c1ccccc1 [STA4783] (first compound 0.4 µM, partner dose 0.006 µM) showed a cell count of 88%. Compound `Cc1ccc(NC(=O)c2cccc(N(C)C)c2)cc1NC(=O)c1ccc(O)cc1` + O=C(O)c1ccc(-c2c[nH]c3ncc(-c4ccccc4)cc23)cc1C1CCCC1 [GSK650394] (first compound 2 µM, partner dose 0.16 µM) has a cell count of 92.3%. `NC(=O)c1ccc(N(C(N)=O)c2c(F)cccc2F)nc1-c1ccc(F)cc1F` + Cc1cc(N2CCOCC2)cc2[nH]c(-c3c(NC[C@@H](O)c4cccc(Cl)c4)cc[nH]c3=O)nc12 [BMS536924] (first compound 0.4 µM, partner dose 0.2 µM) showed a cell count of 86.9%.
